From the RNAGym collection of RNA variant scans (doi:10.7554/elife.90254)
The source gives no read counts; variants with many changes may rest on few reads.

B1: LINE1-mini (parent)
chain: GGCAGAGCUCAACACAGCGUGGCAAAGUGGCUGUGGCUAGACUGCC

Variants of: B1
Assay: self-cleavage, relative activity (ratio to wild type); higher = more cleavage; in vitro, sequencing; the parent is a self-cleaving ribozyme

| Variant | self-cleavage |
| --- | --- |
| GGCAGAGCUAAACACAGCGUGGCAAAGUGGGGGUGGCUAGUGUGCC [C10A C31G U32G A41U C42G] | 0.01 |
| GGCAGAGCUAAACAAAACGUGUCAAAGUGGCCGUGGCUAGACGGCC [C10A C15A G17A G22U U32C U43G] | 0.02 |
| GGCAGAGCUAAAUACAGGGUGGCAAAGUGGCUGUGGCUAAACUACC [C10A C13U C18G G40A G44A] | 0.04 |
| GGCAGAGCUAAACACAGGGUGGCAAAGUGGCGGUGGCUAGACUGGC [C10A C18G U32G C45G] | 0.02 |
| GGCAGAGCUAAACACAGCGUGGGAAAGUGGCUGUCGCUAGACAGCC [C10A C23G G35C U43A] | 0 |
| GGCAGAGCUAAACACAGCGUGGAAAAGUGGCUGUGGCUAGAUUGCC [C10A C23A C42U] | 0.04 |
| GGCAGAGCUAAACACAGCGUGGCAAAGUGGAUGUAGCUAGAGUCCC [C10A C31A G35A C42G G44C] | 0.02 |
| GGCAGAGCUAAACACAGGGUGCCAAAGUGGCUGUGGCUAGACUUCA [C10A C18G G22C G44U C46A] | 0.06 |
| GGCAGAGCUAAACAGAGCGUGGCAAAGUGGCUGUGUCUAGGCUGCC [C10A C15G G36U A41G] | 0.02 |
| GGCAGAGCUAAACACAGCGUGGUACAGUUGUUGUGGCUAGACUGGC [C10A C23U A25C G29U C31U C45G] | 0 |
| GGCAGAGCUAAACAGAGCGUGGCAAAGUGGCUGUGGCUAAAGUGCC [C10A C15G G40A C42G] | 0.03 |
| GGCAGAGCUAAACAAAGGGUGUCAAAGUGGCUGUGGCUAGACUGCC [C10A C15A C18G G22U] | 0.06 |
| GGCAGAGCUAAACACAGCGUGGAAAAGUGGCUGUGACUAGACUGCC [C10A C23A G36A] | 0.04 |
| GGCAGAGCUAAACACAGCGUGGAAAAGUAGCUGUGGUUAGACUGCC [C10A C23A G29A C37U] | 0.02 |
| GGCAGAGCUAAAAACAGCGUGGCAAAGUGUCUGUGGCUAGACUGCG [C10A C13A G30U C46G] | 0.05 |
| GGCAGAGCUAAAGACAGCGUGGCAAAGUGGCUGGGGCUAGACUGCC [C10A C13G U34G] | 0.02 |
| GGCAGAGCUAAACACAGCGUGGCAAAGUGGCUGUGGAUCGACUGCC [C10A C37A A39C] | 0.01 |
| GGCAGAGCUAAACAAAGCGUGGCACAGUGGCUGUGGCUAGACUGCC [C10A C15A A25C] | 0.02 |
| GGCAGAGCUAAACAGAGGGUAGCAAAGUGGAUGUGGCUAGACUGCC [C10A C15G C18G G21A C31A] | 0.01 |

| Variant | self-cleavage |
| --- | --- |
| GGCAGAGCUAAAUACAGCGUGGCAAACCGGCUGUGGCUAGACUGCC [C10A C13U G27C U28C] | 0.04 |
| GGCAGAGCUAAACACAGUGUCGCAAAGUGGCUGUGGCUGGACUGCC [C10A C18U G21C A39G] | 0.05 |
| GGCAGAGCUAAACAAAGCGUGCCAAAAAGGCUGUGGCUGGACUGCC [C10A C15A G22C G27A U28A A39G] | 0.01 |
| GGCAGAGCUAAACAAAGGGUGGCAAAGUGGCUGUGGCUAGACUGCC [C10A C15A C18G] | 0.03 |
| GGCAGAGCUAAACAAAGCGUCGCAAAGUGGCUGUGGCUAUACUGCA [C10A C15A G21C G40U C46A] | 0.02 |
| GGCAGAGCUAAACACAGCGUGGUAAAGUGGUCGUGGCUAGACUGCC [C10A C23U C31U U32C] | 0.03 |
| GGCAGAGCUAAACAAAGCGAGGCAAAGUGGCUGUGUCUAGACUGCC [C10A C15A U20A G36U] | 0.02 |
| GGCAGAGCUAAACACAGAGUGGCAAACUGGCUGGGGCUAGACUGCC [C10A C18A G27C U34G] | 0.01 |
| GGCAGAGCUAAAUACAGCGUGGCAAGGUGGCUUUGGCGAGACUGCC [C10A C13U A26G G33U U38G] | 0.01 |
| GGCAGAGCUAAAUACAUCGUGGCAAACUGGCUGUGGCUGUACUGCC [C10A C13U G17U G27C A39G G40U] | 0.04 |
| GGCAGAGCUAAACACAGCGUGGCAAAGUGGAUGUGGAUAGACUGCC [C10A C31A C37A] | 0.05 |
| GGCAGAGCUAAACACAGGCCGGCAAACUGGCUGUGGCUAAACUGCC [C10A C18G G19C U20C G27C G40A] | 0.01 |
| GGCAGAGCUAAACAGAGCGUGGCAAAGUGGCUAUGGCUAGACUGCC [C10A C15G G33A] | 0.03 |
| GGCAGAGCUAAACACAGCGUGGAAAAGUGGCUGGGGCGAGACUGCC [C10A C23A U34G U38G] | 0.04 |
| GGCAGAGCUAAACAAAGCGUGGCAAAGUGCCUGUGGCUAGACUGCC [C10A C15A G30C] | 0 |
| GGCAGAGCUAAAUACAGCGUGGCAAAGGGGUUGUGGCUAGACUGCC [C10A C13U U28G C31U] | 0.04 |
| GGCAGAGCUAAACAGAGCGUGGUAAAGUGGCUAUGGCUAGACUGCC [C10A C15G C23U G33A] | 0.03 |
| GGCAGAGCUAAAGACAGCGUGGCAAAUUGGAUGUGGCUAGACUGCC [C10A C13G G27U C31A] | 0.03 |
| GGCAGAGCUAAAGAUAGCGUGGCAAAGUGGCUGUGGCUAGACUGCA [C10A C13G C15U C46A] | 0.01 |

| Variant | self-cleavage |
| --- | --- |
| GGCAGAGCUAAAUACAGCGUCGCAAAAUGGCUGUGGCUAGACUGCC [C10A C13U G21C G27A] | 0.01 |
| GGCAGAGCUAAACACAGCGUGGAACAGUGGCUGUGGCUAGACUGCC [C10A C23A A25C] | 0.01 |
| GGCAGAGCUAAAAACAGCGUGGCAAAGUGGCUGUGACUAGACUGCC [C10A C13A G36A] | 0.05 |
| GGCAGAGCUAAACACAGGGUGGCAAAGUGGCAGUGGCUAGACUGCC [C10A C18G U32A] | 0.03 |
| GGCAGAGCUAAAUACGGCGUGGCAAAGUGGCUGUGGCUAGACUGCA [C10A C13U A16G C46A] | 0 |
| GGCAGAGCUAAACACAGCGUGGUUCAGUGGCUGUGGCUAGACUGCC [C10A C23U A24U A25C] | 0 |
| GGCAGAGCUAAAUACAGCGUGGCAAAGUGGUUGUGGCUAGAUUGCC [C10A C13U C31U C42U] | 0.05 |
| GGCAGAGCUAAACACAGGGUGGCUAAGUGGUUGUGGCUAGACUGCC [C10A C18G A24U C31U] | 0.03 |
| GGCAGAGCUAAAAACAGCGUGGCAAAGUGGCUGAGGAUAGACUGCC [C10A C13A U34A C37A] | 0.01 |
| GGCAGAGCUAAACAAAGCGUCGCAAAGUGGCUGUGGCUAGCCUGCC [C10A C15A G21C A41C] | 0.01 |
| GGCAGAGCUAAACACAGCGUGGUAAAGUGGUUGUGGCUAGACAGCC [C10A C23U C31U U43A] | 0.01 |
| GGCAGAGCUAAACAUAGCGUGGCAUAGUGGCUGUGGCUAGACUGCC [C10A C15U A25U] | 0.02 |
| GGCAGAGCUAAAUACAGCGUGGCAAAGUUGCUGUUGCUAGACUGCC [C10A C13U G29U G35U] | 0.03 |
| GGCAGAGCUAAACAAUGCGUGGCAAAGUGGCUGUGGCUAGACUGCC [C10A C15A A16U] | 0.04 |
| GGCAGAGCUAAACACAGGGUGGCAAAGCGGCUGUGGCUAGACUGCC [C10A C18G U28C] | 0.09 |
| GGCAGAGCUAAACACAGAGUGGCGAAGUGGCUAUGGAUAGACUGCC [C10A C18A A24G G33A C37A] | 0.01 |
| GGCAGAGCUAAACAUAGCGUGGCAGAGUGGCUGUGGCUAGACUGGA [C10A C15U A25G C45G C46A] | 0.02 |
| GGCAGAGCUAAACACAGCGUGGCAAAGUGGGUUUGGCUAGACUGCC [C10A C31G G33U] | 0.01 |
